Data published in US20240190968A1 (HEFEI TG IMMUNOPHARMA, published 2024).

Biological target: T1, B7H6 protein overexpressed in HL60 cells (human, UniProt Q68D85 25-454)
T1 construct: Full-length entry expressed from a lentiviral vector; also called HL60-B7H6
T1 sequence: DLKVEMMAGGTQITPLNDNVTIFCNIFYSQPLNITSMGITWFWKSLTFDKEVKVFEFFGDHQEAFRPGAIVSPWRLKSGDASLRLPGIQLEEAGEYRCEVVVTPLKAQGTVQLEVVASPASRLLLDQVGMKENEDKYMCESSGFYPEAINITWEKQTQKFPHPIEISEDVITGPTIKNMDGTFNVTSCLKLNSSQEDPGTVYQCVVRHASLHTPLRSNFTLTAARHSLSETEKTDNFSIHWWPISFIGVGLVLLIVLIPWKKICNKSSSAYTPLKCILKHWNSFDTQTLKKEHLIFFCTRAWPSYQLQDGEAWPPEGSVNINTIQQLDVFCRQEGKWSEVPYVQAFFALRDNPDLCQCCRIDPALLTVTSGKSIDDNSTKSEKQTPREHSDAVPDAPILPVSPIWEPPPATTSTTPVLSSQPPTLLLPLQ
Assay: flow cytometry, NKp30-Fc at 4 ug/tube on HL60-B7H6 cells, then murine 12F5 or control IgG added, 647-labeled mouse anti-human secondary antibody
Protocol: The B7H6 antibody can promote the signaling pathway of B7H6 and its receptor NKp30 by binding to the extracellular domain of B7H6. The flow cytometry assay was used to detect the enhancement of B7H6 antibody binding to the receptor NKp30.
HL60-B7H6 cells (same as above) were diluted with PBS to 2× 10⁶/ml, added to a 1.5 mL EP tube in a volume of 100 μL/tube, 10 μL/tube of mouse serum was added thereto, and was blocked at 4° C. for 30 min. NKp30 extracellular region Fc fusion protein (NKp30-Fc, SEQ ID NO. 25, expressed in this laboratory) was added at 4 μg/tube and incubated for 30 min at 4° C. B7H6 antibody was added and incubated at 4° C. for 30 min. The EP tube was added with 1 mL of PBS and centrifuged at 3500 rpm at 4° C. for 5 min. The supernatant was discarded and the precipitate was washed once more with PBS. After centrifugation, the supernatant was discarded. The cells were resuspended with 100 μl/tube of PBS, 1 μL/tube of 647-labeled mouse anti-human antibody secondary antibody (Biolegend) was added thereto, and incubated at 4° C., under the condition of avoiding light, for 30 min. The cell-containing precipitate was washed twice with PBS and the supernatant was discarded after centrifugation. The cells were resuspended with 200 μL/tube of PBS and detected by flow cytometry. […]

- binding result: binds
B1: recombinant NKp30 extracellular region Fc fusion protein (Fc fusion)
chain: WVSQPPEIRTLEGSSAFLPCSFNASQGRLAIGSVTWFRDEVVPGKEVRNGTPEFRGRLAPLASSRFLHDHQAELHIRDVRGHDASIYVCRVEVLGLGVGTGNGTRLVVEKEHPQLGENLYFQSL[sequence of human IgG1 Fc not given]
notes: also called NKp30-Fc
